{"source": "the antibiotic and cytotoxicity screens of Wong et al. (2023)", "note": "The other results are listed elsewhere or left out.", "data": [{"tested_on": "HSkMC (human skeletal muscle cells)", "assay": "cytotoxicity call (relative viability < 0.9)", "conditions": "10 µM", "values": [{"molecule": "COc1cccc(OC)c1OCCNCCO", "cytotoxicity call": "inactive"}, {"molecule": "O=C(C[C@@H]1C[C@@H]2c3cc(NC(=O)NC4CCCC4)ccc3O[C@@H]2[C@@H](CO)O1)NCc1ccc2c(c1)OCO2", "cytotoxicity call": "inactive"}, {"molecule": "Cc1noc(C)c1NC(=O)N[C@@H]1CC[C@@H](CC(=O)N2CCN(C)CC2)O[C@H]1CO", "cytotoxicity call": "inactive"}, {"molecule": "C[C@H]1CCCCO[C@H](CN(C)Cc2ccccc2)[C@@H](C)CN([C@@H](C)CO)C(=O)c2cc(NS(=O)(=O)c3ccccc3)ccc2O1", "cytotoxicity call": "inactive"}, {"molecule": "Cc1ccc(S(=O)(=O)Nc2cccc3c2O[C@H](CN(C)C(=O)Nc2cccc4ccccc24)[C@@H](C)CN([C@H](C)CO)C3=O)cc1", "cytotoxicity call": "inactive"}, {"molecule": "O=C(CN1CCOC1=O)N1CCC2(CCC(=O)N(CCCn3ccnc3)C2)CC1", "cytotoxicity call": "inactive"}, {"molecule": "COc1ccc(-c2cnc3c(c2)C(=O)N([C@H](C)CO)C[C@H](C)[C@H](CN(C)Cc2cccc(C(F)(F)F)c2)O3)cc1", "cytotoxicity call": "inactive"}, {"molecule": "O=C1[C@H]2C=NN[C@@H]2C(=O)N1Cc1ccccc1", "cytotoxicity call": "inactive"}, {"molecule": "C[C@@H]1CCCCO[C@@H](CN(C)C(=O)NC2CCCCC2)[C@H](C)CN([C@H](C)CO)C(=O)c2cc(NC(=O)c3ccncc3)ccc2O1", "cytotoxicity call": "inactive"}, {"molecule": "Cc1noc(C)c1NC(=O)Nc1ccc2c(c1)C(=O)N([C@@H](C)CO)C[C@H](C)[C@@H](CN(C)C(=O)Nc1ccc3c(c1)OCO3)OCCCC[C@H](C)O2", "cytotoxicity call": "inactive"}, {"molecule": "COc1ccc(S(=O)(=O)Nc2ccc3c(c2)C(=O)N([C@H](C)CO)C[C@@H](C)[C@H](CN(C)C(=O)CCC(F)(F)F)OCCCC[C@@H](C)O3)cc1", "cytotoxicity call": "inactive"}]}]}
